From publication PMC12136788 come the findings set out here.

B1: chr16:23109248:23109249:+_ENSMUSG00000022884_ENSMUST00000115341|mus_mus|motif|central (ssRNA)
RNA: GGGAGUUCUACAGUCCGACGAUCAAGAGCCAAAAUUACCUUUUGGAUCUGUUGAGCCAGUUCUCUGGUGGGGGCCAAUACGGGUGCUUGGGUCUCCUUGAACUCAAUCUCCAACUGUUGCAGGAUGGAAAUAGCAAAUGUGGCCAACAGAGGAUUGAGCAUCA
B2: chr12:48538843:48538844:+_ENSG00000152556_ENST00000359794|hu_hu|FALSE|FALSE (ssRNA)
RNA: GGGAGUUCUACAGUCCGACGAUCCUCUUUGAUUUUCCCAGACAUCCAGUUCAUAGCCUUGGCGCCCAUCUUAGUGGCAAAAUUCCUAUCAAAUGGGGUUGGGCUCCCACCCUGCUGCAUGUGACCAAGCACAUUCUUCCUGCUCAACAGAGGAUUGAGCAUCA
B3: 15599485_15605049_2191_CDS_ENSMUSG00000021733_ENSMUST00000057015|mouse|control|control (ssRNA)
RNA: GGGAGUUCUACAGUCCGACGAUCAGAAACAGUAAGGUUGCCCCAGGAAACACUGUAUGCUGUUAUAUUCUUCCUCUUCCACAGUUCUAGAGUUUCGUUGCUAGGGUUAGAUGGCUCAGCACAUACACAUGUGUAACUGGUCAACAACAGAGGAUUGAGCAUCA
B4: chr6:106732989:106732990:-_ENSMUSG00000005362_ENSMUST00000049675|mus_mus|FALSE|FALSE (ssRNA)
RNA: GGGAGUUCUACAGUCCGACGAUCACUGCCGAUUUUAAGGAGCUGAAUUCUCAAUACAUCAUCAAUAGGAAGACAAGCAGCUACUCUGUAAGAAAAGUCUAUUGGAUUUUCAGGAAGAGAAUCAUCUUUGAGAUUUUCAUCCCACAACAGAGGAUUGAGCAUCA
B5: chr14:39627603:39627604:-_ENSG00000182400_ENST00000330149|hu_hu|FALSE|FALSE (ssRNA)
RNA: GGGAGUUCUACAGUCCGACGAUCGAACUUCAUGAUAUCUAACUCAUCCUUGAACCUUGCAGUAUCUUUUGUAAACCUUUCUAUCAAUCCUUGUCCCACUCGAAACCCCAUGUUUUCCAGCUUAGUAAUACAUCGUCCGUUUUCCAACAGAGGAUUGAGCAUCA
B6: chr12:48362563:48362564:+_ENSG00000134291_ENST00000256686|hu_hu|hu_hu_hu_mus_False|8_28 (ssRNA)
RNA: GGGAGUUCUACAGUCCGACGAUCUCCGUCAAGCCCUUCGAUAGACCCUUGCGGGGGAAACUGUAAUCACUUUGUAUGGGGAAGGAAAAGAAACGCCAAAAACUUUCUUUCUUUCUUGGGUGGGGUGUCCCAGGCCUGGGAGGUCAACAGAGGAUUGAGCAUCA
B7: chr16:94690093:94690094:+_ENSMUSG00000040785_ENSMUST00000117648|mus_hu|mus_mus_mus_hu_True|88_98 (ssRNA)
RNA: GGGAGUUCUACAGUCCGACGAUCGGGCUGGGAUGACAGCAGACAGCAUCUUCCCAGAGGGGGAAAAAGUCUUAGUCGAUACUAAUUAAAAAGUGUUAAUGAUUUUUGAAAAUCAGAUUACAUCUAUAAAAGAUGAAAAGCAAACAACAGAGGAUUGAGCAUCA
B8: chr17:41352247:41352248:+_ENSG00000188554_ENST00000341165|hu_mus|FALSE|FALSE (ssRNA)
RNA: GGGAGUUCUACAGUCCGACGAUCAGACUGACUUUGGACUUCUUCAUCUUGGACUUCCUCCUCUUCCUCAACGACUUCUUCCUCAACAAUGUGGACAAUCUCCUCCCUCUCAUCUCCACGCGGUCCUUCUUCAGGCAAGGCAAACAACAGAGGAUUGAGCAUCA
B9: chr1:220276048:220276049:+_ENSG00000067704_ENST00000302637|hu_hu|hu_hu_hu_mus_True|8_8 (ssRNA)
RNA: GGGAGUUCUACAGUCCGACGAUCGCAAAUUGCCUGGUUGGCGGGAAUUGUCCAAGGCUGGGUGGUCCAAACUAAAACGCUAACAGGGGAUGAGGCAUCUGUAAGAGACUCCAACUUCGGAGGAGGUUUUAAGAGAGGGAAUCUCAACAGAGGAUUGAGCAUCA
B10: chr3:148802587:148802588:-_ENSG00000071794_ENST00000310053|hu_mus|hu_hu_hu_mus_False|38_68 (ssRNA)
RNA: GGGAGUUCUACAGUCCGACGAUCUCCAACAACUUGUCCUCUCAUAGUUCCAAAUAAAACCAAAUCUACUUCUUCAUCACUCGUUAGGAAGUCAUCUGGAGGGAUAAUGUCUUGGAAUUCAAAAUGUGGCAAGAAAGUUGAGUACAACAGAGGAUUGAGCAUCA
B11: 70422386_70424602_1122_CDS_ENSMUSG00000032212_ENSMUST00000049263|mouse|control|control (ssRNA)
RNA: GGGAGUUCUACAGUCCGACGAUCAUUAGAAGACAGUCCACUGACCCAGAUGUUCUUGGUUGAGCUUCCACUGCUCCCACCAGCACUGCCUGUGCUCCCUUUGUCAUCUUUAGAUGAUGUCUUGCUGUCUUUAGAUUCCUUUGACAACAGAGGAUUGAGCAUCA
B12: chr12:16048344:16048345:+_ENSG00000023734_ENST00000419869|hu_mus|FALSE|FALSE (ssRNA)
RNA: GGGAGUUCUACAGUCCGACGAUCAGAUCGUCCAUAAGUAAUAACCAAAAUCUCUCCUUCAGGAAUAUACUCCAUGCUGCUAACAGACAUAUUAAAAUUCAGAGAUUUCACUUCUGUCAUUGUGGCAUGAUCCCAGAGCCGAACCAACAGAGGAUUGAGCAUCA
B13: chr16:94664741:94664742:+_ENSMUSG00000040785_ENSMUST00000117648|mus_hu|mus_mus_mus_hu_False|1_18 (ssRNA)
RNA: GGGAGUUCUACAGUCCGACGAUCUGGUACUGAUCUUGGUAGCUGAUAUUCAGGAGAAAGGCUGGCCAAGGGUGUAUAUAUGCUGGUGUACUGGGGCAAACCUGGUAACACGUUUAUGUACGCUGGUGGUGUCUGGGUGCCAAACAACAGAGGAUUGAGCAUCA
B14: 25285542_25285662_69_5pUTR_ENSMUSG00000033569_ENSMUST00000126626|mouse|control|control (ssRNA)
RNA: GGGAGUUCUACAGUCCGACGAUCGAUGCAUCUCCAGUAAUGCAAAGCGAGAGUGGGAAAAAAGCAAGCAGGCGGUGGUGCGGCGUGCAGAGAGCUGUCCAGCGCCGGAGGUGCUGAAAUCAGGACUAGCUCUGUCCAGCCCUCCAACAGAGGAUUGAGCAUCA
B15: chr1:109605286:109605287:-_ENSG00000197780_ENST00000461096|hu_mus|hu_hu_hu_mus_True|28_58 (ssRNA)
RNA: GGGAGUUCUACAGUCCGACGAUCAAGUUUCAGAGUAACAUUCAGUAACCUCUUUAAAUGCAAUUAUCCUUAUUAUAAACUAAGGGCAAUAAUAAUUUAAUACCGUAAGUAAAUACAACACAAAGCCUGAACCGCGAAAAUGGUCAACAGAGGAUUGAGCAUCA
B16: chr13:24894569:24894570:+_ENSMUSG00000019132_ENSMUST00000019276|mus_mus|FALSE|FALSE (ssRNA)
RNA: GGGAGUUCUACAGUCCGACGAUCCUGAUUAAUUCUUAGUUAUUUCAGAUUUCACUACUGCUAUGAACUGUCAGUGCUUUGCUAUUGAUUACACUUGGUGGUGAGCAAAGAGAAAAGUGCAAAAUCAGCAGAGAAAGAAGGGGACAACAGAGGAUUGAGCAUCA
B17: chr11:100882373:100882374:+_ENSMUSG00000019302_ENSMUST00000044721|mus_mus|mus_mus_mus_hu_True|28_48 (ssRNA)
RNA: GGGAGUUCUACAGUCCGACGAUCUUCCUGGUUUGUGUUGAUUUCCUUCAGUUCAUUUUCAAUCUUCUCAAAAUUGGCCUCUAAGUCGAUCAUGUCCCGGGGGAAGGGCACCUCUGGGUUUUCACCGGUGUCCAUAAUCGGAAUCAACAGAGGAUUGAGCAUCA
B18: chr2:10580766:10580767:-_ENSG00000115758_ENST00000405333|hu_mus|motif|central (ssRNA)
RNA: GGGAGUUCUACAGUCCGACGAUCCUCCUAGCCUUCCAUACUGCAUUGGUGCCAACCCUACUCUCACAAAGACAUCCCAAACGGGCAGUAAGUUAAAUGGUCCCCCCAAAUGCCUUAACACAAGCUAAACUUGCAGGCAAGAGCCAACAGAGGAUUGAGCAUCA
B19: chr19:3053611:3053612:-_ENSG00000104964_ENST00000327141|hu_hu|motif|central (ssRNA)
RNA: GGGAGUUCUACAGUCCGACGAUCCUCCCAUCUGACCCUCCAGGCCUUAGCUUGCCUCACAUGUCAGGGCAGGUAUCCACCGGACCAGGCUGCAGGGGAGGAGGAGGGAAGCCGGGAAUGGGGUAGGAAGAAAGCUAGAGGUGGCAACAGAGGAUUGAGCAUCA
B20: 110352183_110353940_588_CDS_ENSMUSG00000020623_ENSMUST00000020949|mouse|control|control (ssRNA)
RNA: GGGAGUUCUACAGUCCGACGAUCGAAGAGUGCACCGUAGAAGGUCACGGUGAAUGGACAGUCCACCGUCCUCAUGGAGACAUCCAAAUCCAUCAGCAGCCGUUUCUGUUCCUGGCUAUUAACUGUGGCCCGUAUCCGCUUCACCAACAGAGGAUUGAGCAUCA
B21: chr11:5855929:5855930:+_ENSMUSG00000002741_ENSMUST00000002818|mus_mus|FALSE|FALSE (ssRNA)
RNA: GGGAGUUCUACAGUCCGACGAUCACACGUCGUACGCGGCCUUGAGCAGCACCGCUUUCGGAUCGCCUUUGUAAAGGACACUAAGGCUGUACAGCUUCAUGGCGCCGCACCUUCGGGCCGCCGGCUGAGCCCCAGACCCGCUCCCAACAGAGGAUUGAGCAUCA
B22: 22464774_22465537_902_CDS_ENSG00000158941_ENST00000389279|human|control|control (ssRNA)
RNA: GGGAGUUCUACAGUCCGACGAUCAAAUCUGUUCAGGUGGCUCAGGUGAAGUGUGUGGGAUGUUUGGAAGAGACUCAGAGGCUUCUGAGGAAAGAGUGGGGGAAUCCGGUGAGGCUGGAAGAUCAACUGAGGCUGAGCUCCCAGCAACAGAGGAUUGAGCAUCA

Some of the results follow.

The target in this test is T1, UNK ZnF1-3 (human, UniProt Q9C0B0 31-174).
T1 sequence: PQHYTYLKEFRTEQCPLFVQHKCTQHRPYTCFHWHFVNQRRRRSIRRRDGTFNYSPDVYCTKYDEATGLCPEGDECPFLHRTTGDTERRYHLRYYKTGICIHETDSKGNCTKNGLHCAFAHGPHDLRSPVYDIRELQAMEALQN
The experiment in a line: nsRBNS (natural sequence RNA bind-n-seq); RBNS binding buffer (assumed for nsRBNS): 25 mM Tris pH 7.5, 150 mM KCl, 3 mM MgCl2, 0.01% Triton X-100, 500 ug/ml BSA, 20 U/ml SUPERase-In, 4 C; UNK is unkempt and MSI1 is Musashi-1; names of the RNAs are library labels; protein concentration not given here; high values mean tight binding.
B1 came in with a binding signal of 1.66 enrichment R.
Molecule B2 came in with a binding signal of 0.813 enrichment R.
In the case of B3, the binding signal amounted to 0.858 enrichment R.
Under B4 stands 0.839 enrichment R.
As to B5, the binding signal came out at 0.643 enrichment R.
Under B6 stands 1.38 enrichment R.
Under B7 stands 2.25 enrichment R; under B8, 0.961 enrichment R; under B9, 1.78 enrichment R.
B10 registered a binding signal of 1.27 enrichment R.
Under B11 stands 0.455 enrichment R; under B12, 1.22 enrichment R; under B13, 0.966 enrichment R.
Under B14 stands 1.33 enrichment R.
Take B15: the binding signal worked out at 1.1 enrichment R.
B16: the binding signal came to 1.16 enrichment R.
Under B17 stands 0.453 enrichment R; under B18, 1.58 enrichment R.
Under B19 stands 1.09 enrichment R; under B20, 1.07 enrichment R; under B21, 0.517 enrichment R.
Under B22 stands 1.32 enrichment R.
